Measured values: the RNAGym collection of RNA variant scans (doi:10.1073/pnas.2313332121)
Variants at the floor of the assay are shown more often than the library holds them.

B1: TPR 5TU (parent)
chain: GGAUCUUCUCGAUCUAACAAAAAAGACAAAUCUGCCACAAAGCUUGAGAGCAUCUUCGGAUGCAGAGGCGGCAGCCUUCGGUGGCGCGAUAGCGCCAACGUUCUCAACUAUGACACGCAAAACGCGUGCUCCGUUGAAUGGAGUUUAUCAUG

Variants of: B1
Assay: polymerase ribozyme fitness, log enrichment relative to wild type (log ratio); higher = more active; in vitro selection for triplet polymerase activity
In short: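 Each subunit of a heterodimeric triplet polymerase ribozyme was represented by a PCR-built, transcribed mutant library that underwent triplicate single-round in vitro selection with frozen incubation at −7 °C. Extended constructs were recovered by gel excision, streptavidin-bead capture and RT-PCR, and Illumina sequencing of input and output libraries kept genotypes with ≥10 input reads and ≥1 read per output. Fitness is the logarithm of genotype enrichment relative to wild-type enrichment, from inverse-variance-weighted replicate averages, with a logarithm base of 2.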

Variant | polymerase ribozyme fitness (log ratio)
C14G C18G G50A G92A | ≤ -4.2
C14G C35U G58U C93A | ≤ -4.2
U15A A21U C32A G68A C72A C85U G94U G124A | ≤ -4.2
U15C C54A C87U G94A A98U C125A | -3.98
C14U A91C G117C U146G | ≤ -4.2
C14G G25C A49C G62C A97G C105A G128A | ≤ -4.2
C14G U82C A91U U101C A142C | ≤ -4.2
C14G C18U C75U U77A C93G C99U C129G | ≤ -4.2
U15C A21G A24U U53A | 0.983
C14U A41C G50U A52C G84A U90G A91C C116U G140A | ≤ -4.2
C14U A21U A22C C54A C72U G92A C118U U146C | ≤ -4.2
C14U G25C A30U A49U C69G U109A | ≤ -4.2
C14U G50A C72A U90A G117U | ≤ -4.2
C14G U135A U139G G140C | ≤ -4.2
C14G G92C C105G | ≤ -4.2
C14G G48C C75U G81A G84U A97U G141U A150U | ≤ -4.2
C14G A40U G70A U90G A120C C125G C129G A137C | ≤ -4.2
C14G A29G C57U G67C G84A C87U C108U G136U | ≤ -4.2
C14U C87A G88U | ≤ -4.2
C14G U44A G59U C75U A91G G133C | ≤ -4.2
C14G A37U G86U A89U A119U C132G | ≤ -4.2
C14U G50A C57A C76G C93G | ≤ -4.2
C14U C35A A60C C116G G136C | ≤ -4.2
C14G U15G A24G G58C C87G C108A C114U G136A | ≤ -4.2

Variant | polymerase ribozyme fitness (log ratio)
C14G A29U G68A G81A | ≤ -4.2
C14G C38A G68C G71A C95U | ≤ -4.2
C14U C35G C75U C76G C95U | -3.81
C14G G46U G48A A73U U77C | ≤ -4.2
C14G A52C C96A A120U A137G | ≤ -4.2
C14G G25A U55A U127C | ≤ -4.2
U15C A28G U146C | ≤ -4.2
U15C A21U | 1.65
C14U C35G G74U G86U C103A C105G G143A | ≤ -4.2
C14U A17U A24C U31C C32G U44G A47G C93U | ≤ -4.2
C14U C38U G46U G58A U77G U82G A91G U111C A150U | ≤ -4.2
C14G G94C | -2.23
C14G A39G C69G C149G | ≤ -4.2
C14G A52C A60G A91G C93G A120G A137U | ≤ -4.2
C14U A17C C57A G59C G83C A107U | ≤ -4.2
C14U C93G A97G C118A U135C A142C U146G | ≤ -4.2
U15C U56G A113U | -0.657
C14G G80C C131G | ≤ -4.2
C14G A39G A49U U56A G81U | ≤ -4.2
C14U A28G U31A A39U U44G C87G C95G U139A C149A | ≤ -4.2
C14U A22U G42U G94U G141C | ≤ -4.2
C14G C18A A28C A39U A52U U55A G58C U61A C95A | ≤ -4.2
U15C C27U C85U U127A G141U | ≤ -4.2
C14U A19G A24G G50U U127C | ≤ -4.2

Variant | polymerase ribozyme fitness (log ratio)
C14U A30U G133C | ≤ -4.2
C14U A28G C32U G65A A73C G86C | ≤ -4.2
C14G C27G G58A G86U U127C | -4.16
C14G C27A U33G C38G C96G A115C C116A | ≤ -4.2
C14U A30U C87A | ≤ -4.2
C14G C35G U55A G88C C108U U146G | ≤ -4.2
C14U A23G A52G G92U G143A A147G C149U | ≤ -4.2
C14U C72A G136A | ≤ -4.2
C14G U31A A40U U90G G92A A107G G112A G133U G141A | ≤ -4.2
C14G G141A | -1.87
C14U G94A G136U | -3.85
C14G G25C U44G C57U A91G G94U C131A U134G | ≤ -4.2
C14G A28C A47G U53A G84U | ≤ -4.2
C14U A22U A73G A137U | ≤ -4.2
C14U A20U C51U C75G C118G | ≤ -4.2
C14G A39G G48U C57U G71C G92A G124A C125U A150C | ≤ -4.2
C14G G81A G86C C116G G124C | ≤ -4.2
U15A U55A G59A | 0.845
C14U A30U C38G A49G | ≤ -4.2
C14U G46A A47C C57A G65C G86U C96U | ≤ -4.2
C14U A17C C18G A20G G59U C85U A91U C116U U134A G143U | ≤ -4.2
C14G C18U A22C A40C U53A C75A U77A G94C G117U A119G C149G | ≤ -4.2
C14G C36G A52G G133C U146C U148C | ≤ -4.2
C14U A19U A24C C93G U101G U144A U151G | ≤ -4.2

Variant | polymerase ribozyme fitness (log ratio)
C14U A24U G25U G34C C35A G143A U145G | ≤ -4.2
U15C U53A A66U C72U G81A A97G | ≤ -4.2
U15C G48A A49U A52G C54U C87G U90A C96U C99U U148G | ≤ -4.2
C14G G83A G117U U127G | ≤ -4.2
C14U U44A A64U G67A G68A G84U C93G G124A | ≤ -4.2
U15C A17C A26U C32G G68U C105U A110U | ≤ -4.2
C14U G50A U55A G94C U101A C105G G141C | ≤ -4.2
C14U G74C A107G | ≤ -4.2
U15C A21G C35U C72G G74U C75G G83C A89G | ≤ -4.2
C14U A41U U56A C93A C123A | ≤ -4.2
C14U A28C A30U A73G G88A C129A | ≤ -4.2
C14U G140A | ≤ -4.2
U15A A21C U56A G68C U77A C96G U104G C108U G141C | ≤ -4.2
C14G U53G C95A A119C U145G | ≤ -4.2
U15A A21U C35U A97G U151C | ≤ -4.2
C14U G48U A52U A138C A142C U148G | ≤ -4.2
U15A A16U A17G A91G C93A G140U | ≤ -4.2
U15A G46A A52C C54U G94U A107U U145A A150G G152U | ≤ -4.2
C14U G42A C51A U55G C76G G92C C118A | ≤ -4.2
C14G U56A A97G G143C | ≤ -4.2
C14U A39U C87A | ≤ -4.2
C14G C57G C72U A147G C149G | ≤ -4.2
C14G A28U G50A A119C A147U | ≤ -4.2
C14U G42C A52C G84A C85A A115C | ≤ -4.2

Variant | polymerase ribozyme fitness (log ratio)
U15C U53G C99G A107G A142U | ≤ -4.2
U15C G74C G94C | -4.1
C14G G25C | ≤ -4.2
U15A C36U C63U C96G G100C | ≤ -4.2
U15A A19U C75A G83U G88U U144C | ≤ -4.2
C14G C18A A20U G25C C36U A41G A49G G83U C95G C96A C116A | ≤ -4.2
U15C A20U C54U G86U | -1.77
U15G A19C A22U A30G C51U A52C C75G G83A C108G | ≤ -4.2
C14U C32G C69A | ≤ -4.2
C14G A107G A137U U148C | ≤ -4.2
U15C G84A A106G G124A | -0.149
U15C C51A U55A G92U C93G A138U C149A | ≤ -4.2
C14G C87A G94A U104A | ≤ -4.2
U15C C18U A23C U45A C54G G81A G84A C95A A97C A110U | ≤ -4.2
U15C A37U G46U G84U U148C | ≤ -4.2
C14G U44G C79G C85A C87A U146G | ≤ -4.2
C14U A29C A47U A52G C72G A113C A115U | ≤ -4.2
C14G G88A C116U | ≤ -4.2
U15C A23G A24U C51U A52C G58C C95U C118G | ≤ -4.2
C14U U45A A49G G88U C118U | ≤ -4.2
C14G G65A C85U U102G A113G G126A G141U | ≤ -4.2
C14U G25U U90G | ≤ -4.2
C14U A22C C38U C69G G70A U77C A115G G141C | ≤ -4.2
C14U C35U C38U C96A C123A U134G | ≤ -4.2

Variant | polymerase ribozyme fitness (log ratio)
C14G A29C G62A G84U C99G | ≤ -4.2
C14G A30U A49G C57U A60C G92U | ≤ -4.2
C14G G88A U127C | ≤ -4.2
C14U A19G G94A A106G C131G | ≤ -4.2
C14U U61A G68A G126U A142C | ≤ -4.2
C14G A30G U56A A91U | ≤ -4.2
C14G A28C G50C C79A C93U U139G G143C | ≤ -4.2
C14U C36U G65C C96G G136A | ≤ -4.2
C14U A41C G84U G94U | ≤ -4.2
C14G A30C G50A C76U C87A A107G U111C A120U | ≤ -4.2
C14U C18G C54G C57U C79A C85A G94A | ≤ -4.2
C14G G46C G59A G71A C96U | ≤ -4.2
U15C A24C C93U G128U G140A U144C | ≤ -4.2
C14G C93U U135A | ≤ -4.2
C14U A24U A26U C35U C85U | ≤ -4.2
C14G U53A G81A U130G | ≤ -4.2
U15C G25A C35G G83A U127G | ≤ -4.2
C14G U33A G48A U82C C85G C149G | ≤ -4.2
C14U A41U A60C A66U G80A C85U C103U | ≤ -4.2
C14G C38G C69U C85U C87U G126A | ≤ -4.2
C14U U15A C93U U101A | -2.56
C14U A22C C132U U151G | ≤ -4.2
C14U A49U C87A C123A A150U | ≤ -4.2
U15A A40G G46A U55A C87U U104G | ≤ -4.2

Variant | polymerase ribozyme fitness (log ratio)
U15C A22U A47C G67U G81A G94U A142U U144A | ≤ -4.2
U15C C18U U33A A52U G86U G92C | ≤ -4.2
C14U A24U C38U A49C U55G U78G C108U U148A | ≤ -4.2
U15A G83U | -0.19
C14G A29G G71C A121G | ≤ -4.2
U15A C43A U56A C87U C108G | ≤ -4.2
C14U C35A C79U G92C C103A | ≤ -4.2
C14U G50C A98U C108A | ≤ -4.2
C14G G65U G133C G141U | ≤ -4.2
U15G A17C A20C A28U A47G C57A A89U A91G U101G | ≤ -4.2
C14G U53C C75U G94U C149U | ≤ -4.2
C14G G88U U102A | ≤ -4.2
C14U C57G G92A G143A | ≤ -4.2
C14G A39C C54G G71U C79G | ≤ -4.2
C14U G141U | 0.0902
C14G C85G C103A | ≤ -4.2
U15A A29G C85U U102G A106G A107G U127A G133U G140C | ≤ -4.2
C14G C27A A37G G50C G84A C99G C125G U134A G143C U146A | ≤ -4.2
C14U C35A C69G C85A C99G A122U C125A U146A U148A | ≤ -4.2
C14U G34C U55G G65C A73G C99A C103A A119U G128A | ≤ -4.2
U15G A16U C27A U53G U55G A73G C95G | ≤ -4.2
C14U A30C A47G U56A U90C C93A C105A C149G | ≤ -4.2
U15A A30U C35U G59C G70A C87G G136A | ≤ -4.2
